PubChem BioAssay AID493014 (National Center for Advancing Translational Sciences (NCATS), 2011)
Hit rate of the full screen: of about 340,000 compounds, about 170 (0.05%) were called active. Another 26% or so got no clear call; they are omitted. Calls follow the shape of the dose curve; as a rule, active = well fitted inhibition curve with a large enough effect in the signal ratio, with a control signal flat (not every such curve was filed as active); inconclusive = small, poorly fitted or top-dose-only effect, or effect the other way, or a change in a side signal; inactive = flat fitted curve, though single readings scatter; the % refers to the signal ratio. The entries are a selection whose mix differs from that of the whole data set.

assay: qHTS Assay to Find Inhibitors of Chronic Active B-Cell Receptor Signaling; settings: ABC-DLBCL IkBa-CBG/CBR reporter, luminescence ratio (green luciferase fused to IkBa over red control in TMD8 lymphoma cells), 4 h; series mostly up to 46.1 µM; activity change, negative = inhibition: at the top concentration;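 as to activity change, negative = inhibition: plate controls were basal doxycycline-induced cells for no effect and cells given 10 µM MG132 for full effect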
Summary of the method: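 TMD8 human ABC-DLBCL cells with doxycycline-inducible IκBα–green luciferase fusion and unfused red luciferase, in 0.5% FBS medium; compounds up to 46 uM, 4 h at 37C. Green/red luminescence ratio, filter-overlap corrected, fitted to concentration-response curves.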
Potency is read from the fitted curve at half-maximal effect.

Activity change, negative = inhibition, inactive:
CC1=NN(c2ccccc2)C(=O)/C1=C\C=C1/N(C)c2ccccc2C1(C)C 14.4%, CC[n+]1c(/C=C(/C)SC)sc2ccccc21 3.86%, C=CC[C@@H](CC(=O)NCCO)C(=O)N[C@H](C)COC(=O)[C@@H](CC=C)CC(=O)OC(C)(C)C 6.6%, CCCC(=O)N1CCc2cc(OC)c(OC)cc2C1COc1ccccc1OC (stereo unspecified) -2.6%, OCC#CCSc1nnc(-c2cccc3ccccc23)o1 -4.29%, CC1=NN(c2ccccc2)C(=O)/C1=C\c1cn(C)c2ccccc12 6.86%, C=CC[C@@H](CC(=O)N(CCO)Cc1ccccc1)C(=O)N[C@H](COC(=O)[C@@H](CC=C)CC(=O)OC(C)(C)C)Cc1c[nH]c2ccccc12 -1.24%, c1ccc(-c2nc[nH]c2-c2ccccc2)cc1 -4.38%, O=C(O)/C=C/C(=O)NC1CCCCC1 7.64%, O=C(NCc1ccccc1)C1=C[C@@H](C2CC2)C[C@@H](OCc2ccc(CO)cc2)O1 12.7%, CC(C)(C)OC(=O)C[C@@H]1C/C=C\C[C@H](CC(=O)N(CCO)Cc2ccccc2)C(=O)N2CCC[C@H]2COC1=O -0.545%, CN1CCN(C(=O)C2=C[C@@H](c3csc4ccccc34)C[C@@H](OCCCCO)O2)CC1 -0.436%, [O-]/[N+](=C/c1ccc(F)cc1)c1ccccc1 -13.6%, CCOC(=O)CC(NC(=O)Cn1nnc(-c2ccccc2Cl)n1)c1ccc(OC)cc1 (stereo unspecified) -18.7%, CC1(C)CC(=O)C2=C(C1)OC(N)=C(C#N)[C@@H]2c1ccccc1[N+](=O)[O-] 5.14%, Cc1noc(NS(=O)(=O)c2ccc(N/C=C\C(=O)c3ccc4c(c3)OCO4)cc2)c1C 6.66%, O=C1NC(=Nc2ccccc2)S/C1=C\c1cccnc1 1.91%, CC(/C=C/c1ccc(Cl)o1)=C\C(=O)O 8.71%, O=C(N/C(=C\c1ccccc1)C(=O)N1CCCCC1)c1ccc(Br)o1 3.3%, CC(=O)c1cc2c(cc1N/C(=N/S(=O)(=O)c1ccc(C)cc1)c1ccccc1)OCO2 4.83%, CCOC(=O)C1CCCN(S(=O)(=O)c2ccc(F)c(C(=O)Nc3ccc(F)c(F)c3)c2)C1 (stereo unspecified) 8.65%, CC(C)(C)OC(=O)C[C@H]1C/C=C\C[C@H](CC(=O)N[C@H](CO)Cc2ccccc2)C(=O)N2CCC[C@H]2COC1=O -0.489%

Potency, active:
O/N=C1/CC/C(=N\O)c2nn(-c3ccccc3)nc21 5.8 µM, CC(C)(C)NNC(=S)Nc1cccc(C(F)(F)F)c1 7.94 µM, Cc1c(Cl)cccc1NC(=S)N=Nc1c(O)n(CN2CCOCC2)c2ccccc12 7.31 µM, c1ccc(C2=Nn3c(nnc3-c3cc(-c4ccccc4)n[nH]3)SC2)cc1 11.6 µM
